Experimental data taken from a collection of fitness landscapes (doi:10.1016/j.celrep.2020.107928).
Over roughly 81,000 sequences, “one-hybrid fitness for binding parS DNA” has its median near -0.17; the highest 2% begin near 0.51. Some of the results follow.

B1: Caulobacter ParB omega fusion; a variant is named by its letters at X, in order, B8GW30 (parent)
chain: MESVVVGEPGMSEGRRGLGRGLSALLGEVDAAPAQAPGEQLGGSREAPIEILQRNPDQPRRTFREEDLEDLSNSIREKGVLQPILVRPSPDTAGEYQIVAGERAWRAAQRAGLKTVPIMVRELDDLAVLEIGIIENVQRADLNVLEEALSYKVLMEKFERTQENIAQTIGKSXSHVANXMRLLXLPDEVQSYLVSGELTAXHARAIAAAADPVALAKQIIEGGLSVRETEALARKAPNLSAGKSKGGRPPRVKDTDTQALESDLSSVLGLDVSIDHRGSTGTLTITYATLEQLDDLCNRLTRGI

Variants of: B1
Assay: one-hybrid fitness for binding parS DNA (scaled: cognate 1, non-cognate 0); higher = stronger binding
Conditions: with parS DNA site
Outline: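 Pre- and post-selection plasmids were Illumina-sequenced, three replicate libraries were pooled, and any variant with under 10 reads was removed. The libraries were Caulobacter ParB with four specificity codons randomised, selected in E. coli USO through a HIS3 reporter whose site is 19 bp from the promoter. Cells grew 48 hours at 37°C on M9 without histidine, with 0.1 mM IPTG and 5 mM 3-AT. Fitness is the log change in variant-to-wild-type read ratio, rescaled against cognate and non-cognate.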

Variant	one-hybrid fitness for binding parS DNA
CAHW	≤ 0.2
ANRT	≤ 0.2
AENM	≤ 0.2
RGSP	≤ 0.2
STSW	≤ 0.2
PQCH	≤ 0.2
IDAT	≤ 0.2
PKIY	≤ 0.2
MPLN	≤ 0.2
DYIF	≤ 0.2
RQDK	≤ 0.2
HRPC	≤ 0.2
KWYT	≤ 0.2
KKKL	≤ 0.2
LCWL	≤ 0.2
PSNE	≤ 0.2
VWLC	≤ 0.2
PYDR	≤ 0.2
AIER	≤ 0.2
HENS	≤ 0.2
MERE	≤ 0.2
LRHP	≤ 0.2
WYSR	≤ 0.2
VHAM	≤ 0.2
IRRD	≤ 0.2
GFNW	≤ 0.2

Variant	one-hybrid fitness for binding parS DNA
CFSY	≤ 0.2
YVTE	≤ 0.2
SMQS	≤ 0.2
NYMS	≤ 0.2
ILPE	≤ 0.2
CIGS	≤ 0.2
YRLL	≤ 0.2
DHYM	≤ 0.2
YGTA	≤ 0.2
WMSG	≤ 0.2
MVQC	≤ 0.2
QACN	≤ 0.2
VMAP	≤ 0.2
ALNT	≤ 0.2
WCVS	≤ 0.2
VAPP	≤ 0.2
RHSP	≤ 0.2
RTWD	0.22
YNRG	≤ 0.2
ADSL	≤ 0.2
DLSW	≤ 0.2
YSAL	≤ 0.2
YWKT	≤ 0.2
VLTC	≤ 0.2
RLMY	0.49
EASV	≤ 0.2

Variant	one-hybrid fitness for binding parS DNA
TTIS	≤ 0.2
RAGP	≤ 0.2
EPPN	≤ 0.2
DSET	≤ 0.2
KPTD	≤ 0.2
QRTQ	≤ 0.2
ACHI	≤ 0.2
GPDS	≤ 0.2
PNYR	≤ 0.2
PIEE	≤ 0.2
AMKV	≤ 0.2
PYRP	≤ 0.2
RYWD	≤ 0.2
YHQC	≤ 0.2
KMTL	≤ 0.2
LTMD	≤ 0.2
FCIL	≤ 0.2
SPHL	≤ 0.2
DMAI	≤ 0.2
ASTY	≤ 0.2
MVFR	≤ 0.2
MYQT	≤ 0.2
VSPS	≤ 0.2
SRQP	≤ 0.2
VGEV	≤ 0.2
FASI	≤ 0.2

Variant	one-hybrid fitness for binding parS DNA
IEHL	≤ 0.2
YSVM	≤ 0.2
HQHL	≤ 0.2
PLKT	≤ 0.2
REYL	≤ 0.2
KCDR	≤ 0.2
LPAP	≤ 0.2
TWLC	≤ 0.2
KGRN	≤ 0.2
HRVG	≤ 0.2
RYVL	≤ 0.2
NTST	≤ 0.2
PHMR	≤ 0.2
HHPF	≤ 0.2
EGKR	≤ 0.2
TQVT	≤ 0.2
HHNT	≤ 0.2
DNRN	≤ 0.2
WGHG	≤ 0.2
QKPQ	≤ 0.2
AYSR	≤ 0.2
RAIN	0.301
ANIE	≤ 0.2
ATHS	≤ 0.2
KGFT	≤ 0.2
HSKA	≤ 0.2

Variant	one-hybrid fitness for binding parS DNA
TIKC	≤ 0.2
SNPQ	≤ 0.2
VWHC	≤ 0.2
LAAC	≤ 0.2
RTFQ	0.26
ITYR	≤ 0.2
ERRH	≤ 0.2
DRCM	≤ 0.2
QDKT	≤ 0.2
LMHW	≤ 0.2
MSTI	≤ 0.2
VQRN	≤ 0.2
PLFM	≤ 0.2
RQLN	0.439
VSYP	≤ 0.2
LQST	≤ 0.2
QAKH	≤ 0.2
EQYF	≤ 0.2
KGHN	≤ 0.2
HRMS	0.341
SNHS	≤ 0.2
CHSH	≤ 0.2
KSFC	≤ 0.2
RQCT	0.846
YILP	≤ 0.2
RSEP	≤ 0.2

Variant	one-hybrid fitness for binding parS DNA
HPPI	≤ 0.2
KVQC	≤ 0.2
MPKL	≤ 0.2
RDRM	≤ 0.2
IHNN	≤ 0.2
QIEE	≤ 0.2
ILSS	≤ 0.2
TRHD	≤ 0.2
REHG	0.236
TTLT	≤ 0.2
WPQV	≤ 0.2
PSIM	≤ 0.2
LSPV	≤ 0.2
QIAS	≤ 0.2
LIAK	≤ 0.2
TQQH	≤ 0.2
GSGC	≤ 0.2
PLDA	≤ 0.2
QHWF	≤ 0.2
AGQV	≤ 0.2
PVGQ	≤ 0.2
GRQT	≤ 0.2
QQRT	≤ 0.2
